# The list shows a part of the results.
# B1: Annexin-A1 (Mus musculus), P10107 (protein)
# chain: MAMVSEFLKQARFLENQEQEYVQAVKSYKGGPGSAVSPYPSFNVSSDVAALHKAIMVKGVDEATIIDILTKRTNAQRQQIKAAYLQENGKPLDEVLRKALTGHLEEVVLAMLKTPAQFDADELRGAMKGLGTDEDTLIEILTTRSNEQIREINRVYREELKRDLAKDITSDTSGDFRKALLALAKGDRCQDLSVNQDLADTDARALYEAGERRKGTDVNVFTTILTSRSFPHLRRVFQNYGKYSQHDMNKALDLELKGDIEKCLTTIVKCATSTPAFFAEKLYEAMKGAGTRHKALIRIMVSRSEIDMNEIKVFYQKKYGISLCQAILDETKGDYEKILVALCGGN
# Key:
# Experiment in all cases: glycan array binding signal (z-score within array); higher = stronger binding
# Details in all cases: glycan notation: IUPAC condensed, linker removed
# [1] = target: Neu5Ac(a2-3)Gal(b1-3)[Neu5Ac(a2-6)]GalNAc
# Summary of the method: (§1)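 Glycan array data were curated from 3228 arrays in the Consortium for Functional Glycomics database and kept only where the protein sequence was available. Glycan names were converted to IUPAC-condensed notation, and columns mapping to the same glycan were averaged. The binding signal is a within-array Z-score, averaged across arrays of the same protein sequence at different concentrations or buffers and across linkers. Negative Z-scores can be read as non-binding.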
# Neu5Ac(a2-3)Gal(b1-4)Glc = target: Neu5Ac(a2-3)Gal(b1-4)Glc
# Summary of the method: as §1
# [2] = target: Neu5Ac(a2-3)Gal(b1-4)GlcNAc
# Summary of the method: as §1
# [3] = target: Neu5Ac(a2-3)Gal(b1-4)GlcNAc(b1-3)Gal(b1-3)GlcNAc
# Summary of the method: as §1
# [4] = target: Neu5Ac(a2-3)Gal(b1-4)GlcNAc(b1-3)Gal(b1-4)GlcNAc
# Summary of the method: as §1
# [5] = target: Neu5Ac(a2-3)Gal(b1-4)GlcNAc(b1-3)Gal(b1-4)GlcNAc(b1-3)Gal(b1-4)GlcNAc
# Summary of the method: as §1
# [6] = target: Neu5Ac(a2-3)Gal(b1-4)GlcNAc(b1-3)Gal(b1-4)[Fuc(a1-3)]GlcNAc
# Summary of the method: as §1
# [7] = target: Neu5Ac(a2-3)Gal(b1-4)GlcNAc(b1-6)[Gal(b1-3)]GalNAc
# Summary of the method: as §1
# [8] = target: Neu5Ac(a2-3)Gal(b1-4)GlcNAc6S
# Summary of the method: as §1
# [9] = target: Neu5Ac(a2-3)Gal(b1-4)[Fuc(a1-3)]GlcNAc
# Summary of the method: as §1
# [10] = target: Neu5Ac(a2-3)Gal(b1-4)[Fuc(a1-3)]GlcNAc(b1-3)Gal
# Summary of the method: as §1
# [11] = target: Neu5Ac(a2-3)Gal(b1-4)[Fuc(a1-3)]GlcNAc(b1-3)Gal(b1-4)GlcNAc
# Summary of the method: as §1
# [12] = target: Neu5Ac(a2-3)Gal(b1-4)[Fuc(a1-3)]GlcNAc(b1-3)Gal(b1-4)[Fuc(a1-3)]GlcNAc(b1-3)Gal(b1-4)[Fuc(a1-3)]GlcNAc
# Summary of the method: as §1
# [13] = target: Neu5Ac(a2-3)Gal(b1-4)[Fuc(a1-3)]GlcNAc6S
# Summary of the method: as §1
# [14] = target: Neu5Ac(a2-3)Gal6S(b1-4)GlcNAc
# Summary of the method: as §1
# [15] = target: Neu5Ac(a2-3)Gal6S(b1-4)[Fuc(a1-3)]GlcNAc
# Summary of the method: as §1
# Neu5Ac(a2-3)GalNAc = target: Neu5Ac(a2-3)GalNAc
# Summary of the method: as §1
# [16] = target: Neu5Ac(a2-3)GalNAc(b1-4)GlcNAc
# Summary of the method: as §1
# [17] = target: Neu5Ac(a2-3)[GalNAc(b1-4)]Gal(b1-4)Glc
# Summary of the method: as §1
# [18] = target: Neu5Ac(a2-3)[GalNAc(b1-4)]Gal(b1-4)GlcNAc
# Summary of the method: as §1
# [19] = target: Neu5Ac(a2-3)[Neu5Ac(a2-6)]GalNAc
# Summary of the method: as §1
# [20] = target: Neu5Ac(a2-6)Gal(b1-4)GlcNAc
# Summary of the method: as §1
# [21] = target: Neu5Ac(a2-6)Gal(b1-4)GlcNAc(b1-2)Man(a1-3)[Neu5Ac(a2-6)Gal(b1-4)GlcNAc(b1-2)Man(a1-6)]Man(b1-4)GlcNAc(b1-4)GlcNAc
# Summary of the method: as §1
# [22] = target: Neu5Ac(a2-6)Gal(b1-4)GlcNAc(b1-3)Gal(b1-4)GlcNAc
# Summary of the method: as §1
# [23] = target: Neu5Ac(a2-6)Gal(b1-4)GlcNAc(b1-3)Gal(b1-4)[Fuc(a1-3)]GlcNAc(b1-3)Gal(b1-4)[Fuc(a1-3)]GlcNAc
# Summary of the method: as §1
# [24] = target: Neu5Ac(a2-6)Gal(b1-4)GlcNAc6S
# Summary of the method: as §1
# Neu5Ac(a2-6)GalNAc = target: Neu5Ac(a2-6)GalNAc
# Summary of the method: as §1
# [25] = target: Neu5Ac(a2-6)GalNAc(b1-4)GlcNAc
# Summary of the method: as §1
# Neu5Ac(a2-8)Neu5Ac = target: Neu5Ac(a2-8)Neu5Ac
# Summary of the method: as §1
# [26] = target: Neu5Ac(a2-8)Neu5Ac(a2-3)Gal(b1-4)Glc
# Summary of the method: as §1
# [27] = target: Neu5Ac(a2-8)Neu5Ac(a2-3)[GalNAc(b1-4)]Gal(b1-4)Glc
# Summary of the method: as §1
# [28] = target: Neu5Ac(a2-8)Neu5Ac(a2-8)Neu5Ac
# Summary of the method: as §1
# [29] = target: Neu5Ac(a2-8)Neu5Ac(a2-8)Neu5Ac(a2-3)Gal(b1-4)Glc
# Summary of the method: as §1
# [30] = target: Neu5Ac(a2-8)Neu5Ac(a2-8)Neu5Ac(a2-3)[GalNAc(b1-4)]Gal(b1-4)Glc
# Summary of the method: as §1
# [31] = target: Neu5Ac(a2-8)Neu5Ac(a2-8)Neu5Ac(a2-8)Neu5Ac(a2-3)[GalNAc(b1-4)]Gal(b1-4)Glc
# Summary of the method: as §1
# [32] = target: Neu5Ac9Ac(a2-6)Gal(b1-4)GlcNAc
# Summary of the method: as §1
# [33] = target: Neu5Gc(a2-3)Gal(b1-3)GlcNAc
# Summary of the method: as §1
# [34] = target: Neu5Gc(a2-3)Gal(b1-3)[Fuc(a1-4)]GlcNAc
# Summary of the method: as §1
# Neu5Gc(a2-3)Gal(b1-4)Glc = target: Neu5Gc(a2-3)Gal(b1-4)Glc
# Summary of the method: as §1
# [35] = target: Neu5Gc(a2-3)Gal(b1-4)GlcNAc
# Summary of the method: as §1
# [36] = target: Neu5Gc(a2-3)Gal(b1-4)[Fuc(a1-4)]GlcNAc
# Summary of the method: as §1
# [37] = target: Neu5Gc(a2-6)Gal(b1-4)GlcNAc
# Summary of the method: as §1
# Neu5Gc(a2-6)GalNAc = target: Neu5Gc(a2-6)GalNAc
# Summary of the method: as §1
binder,measurement,setting,value
B1,glycan array binding signal (z-score),[1],-0.287
same,glycan array binding signal (z-score),Neu5Ac(a2-3)Gal(b1-4)Glc,0.108
same,glycan array binding signal (z-score),[2],-0.36
same,glycan array binding signal (z-score),[3],-0.481
same,glycan array binding signal (z-score),[4],-0.245
same,glycan array binding signal (z-score),[5],-0.611
same,glycan array binding signal (z-score),[6],-0.465
same,glycan array binding signal (z-score),[7],-0.622
same,glycan array binding signal (z-score),[8],-0.058
same,glycan array binding signal (z-score),[9],-0.252
same,glycan array binding signal (z-score),[10],-0.758
same,glycan array binding signal (z-score),[11],-0.086
same,glycan array binding signal (z-score),[12],-0.512
same,glycan array binding signal (z-score),[13],0.188
same,glycan array binding signal (z-score),[14],-0.076
same,glycan array binding signal (z-score),[15],-0.632
same,glycan array binding signal (z-score),Neu5Ac(a2-3)GalNAc,-0.778
same,glycan array binding signal (z-score),[16],-0.515
same,glycan array binding signal (z-score),[17],0.136
same,glycan array binding signal (z-score),[18],-0.528
same,glycan array binding signal (z-score),[19],-0.514
same,glycan array binding signal (z-score),[20],-0.22
same,glycan array binding signal (z-score),[21],-0.346
same,glycan array binding signal (z-score),[22],-0.507
same,glycan array binding signal (z-score),[23],0.039
same,glycan array binding signal (z-score),[24],1.36
same,glycan array binding signal (z-score),Neu5Ac(a2-6)GalNAc,-0.316
same,glycan array binding signal (z-score),[25],-0.589
same,glycan array binding signal (z-score),Neu5Ac(a2-8)Neu5Ac,-0.028
same,glycan array binding signal (z-score),[26],0.061
same,glycan array binding signal (z-score),[27],1.13
same,glycan array binding signal (z-score),[28],0.41
same,glycan array binding signal (z-score),[29],-0.535
same,glycan array binding signal (z-score),[30],-0.223
same,glycan array binding signal (z-score),[31],-0.447
same,glycan array binding signal (z-score),[32],-0.157
same,glycan array binding signal (z-score),[33],0.628
same,glycan array binding signal (z-score),[34],-0.413
same,glycan array binding signal (z-score),Neu5Gc(a2-3)Gal(b1-4)Glc,0.38
same,glycan array binding signal (z-score),[35],0.368
same,glycan array binding signal (z-score),[36],-0.436
same,glycan array binding signal (z-score),[37],0.336
same,glycan array binding signal (z-score),Neu5Gc(a2-6)GalNAc,-0.052
